# Laboratory results published in the supplement of paper PMC8728848.
# The list shows a part of the results.
# B1: AFL (Aspergillus fumigatus), Q4WW81 (protein)
# chain: STPGAQQVLFRTGIAAVNLTNHLRVYFQDVYGSIRESLYEGSWANGTEKNVIGNAKLGSPVAATSKELKHIRVYTLTEGNTLQEFAYDSGTGWYNGGLGGAKFQVAPYSRIAAVFLAGTDALQLRIYAQKPDNTIQEYMWNGDGWKEGTNLGGALPGTGIGATSFRYTDYNGPSIRIWFQTDDLKLVQRAYDPHKGWYPDLVTIFDRAPPRTAIAATSFGAGNSSIYMRIYFVNSDNTIWQVCWDHGKGYHDKGTITPVIQGSEVAIISWGSFANNGPDLRLYFQNGTYISAVSEWVWNRAHGSQLGRSALPPA
# Key:
# Test in all cases: glycan array binding signal (z-score within array); higher = stronger binding
# Settings in all cases: glycan notation: IUPAC condensed, linker removed
# [1] = biological target: Gal(b1-3)Gal(b1-4)GlcNAc(b1-2)Man(a1-3)[Gal(b1-3)Gal(b1-4)GlcNAc(b1-2)Man(a1-6)]Man(b1-4)GlcNAc(b1-4)GlcNAc
# Summary of the method: (§1)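 Glycan array data came from 3228 arrays in the Consortium for Functional Glycomics database, and only arrays with an available protein sequence were kept. Glycan names were put into IUPAC-condensed notation, and columns mapping to the same glycan were averaged. The binding signal is a within-array Z-score, averaged across arrays of one protein sequence run at different concentrations or buffers and across linkers. A negative Z-score can be read as non-binding.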
# Gal(b1-3)GalNAc = biological target: Gal(b1-3)GalNAc
# Summary of the method: as §1
# [2] = biological target: Gal(b1-3)GalNAc(a1-3)[Fuc(a1-2)]Gal(b1-4)Glc
# Summary of the method: as §1
# [3] = biological target: Gal(b1-3)GalNAc(a1-3)[Fuc(a1-2)]Gal(b1-4)GlcNAc
# Summary of the method: as §1
# [4] = biological target: Gal(b1-3)GalNAc(b1-3)Gal(a1-4)Gal(b1-4)Glc
# Summary of the method: as §1
# [5] = biological target: Gal(b1-3)GalNAc(b1-4)Gal(b1-4)Glc
# Summary of the method: as §1
# [6] = biological target: Gal(b1-3)GalNAc(b1-4)[Neu5Ac(a2-3)]Gal(b1-4)Glc
# Summary of the method: as §1
# Gal(b1-3)GlcNAc = biological target: Gal(b1-3)GlcNAc
# Summary of the method: as §1
# [7] = biological target: Gal(b1-3)GlcNAc(a1-6)Gal(b1-4)GlcNAc
# Summary of the method: as §1
# [8] = biological target: Gal(b1-3)GlcNAc(b1-2)Man(a1-3)[Gal(b1-3)GlcNAc(b1-2)Man(a1-6)]Man(b1-4)GlcNAc(b1-4)GlcNAc
# Summary of the method: as §1
# [9] = biological target: Gal(b1-3)GlcNAc(b1-2)Man(a1-3)[Gal(b1-3)GlcNAc(b1-2)Man(a1-6)]Man(b1-4)GlcNAc(b1-4)[Fuc(a1-6)]GlcNAc
# Summary of the method: as §1
# [10] = biological target: Gal(b1-3)GlcNAc(b1-2)[Gal(b1-3)GlcNAc(b1-6)]Man(a1-6)[Gal(b1-3)GlcNAc(b1-2)Man(a1-3)]Man(b1-4)GlcNAc(b1-4)GlcNAc
# Summary of the method: as §1
# [11] = biological target: Gal(b1-3)GlcNAc(b1-3)Gal(b1-3)GlcNAc
# Summary of the method: as §1
# [12] = biological target: Gal(b1-3)GlcNAc(b1-3)Gal(b1-4)Glc
# Summary of the method: as §1
# [13] = biological target: Gal(b1-3)GlcNAc(b1-3)Gal(b1-4)GlcNAc
# Summary of the method: as §1
# [14] = biological target: Gal(b1-3)GlcNAc(b1-3)Gal(b1-4)GlcNAc(b1-6)[Gal(b1-3)GlcNAc(b1-3)]Gal(b1-4)Glc
# Summary of the method: as §1
# [15] = biological target: Gal(b1-3)GlcNAc(b1-3)Gal(b1-4)[Fuc(a1-3)]GlcNAc(b1-6)[Gal(b1-3)GlcNAc(b1-3)]Gal(b1-4)Glc
# Summary of the method: as §1
# [16] = biological target: Gal(b1-3)GlcNAc(b1-3)GalNAc
# Summary of the method: as §1
# [17] = biological target: Gal(b1-3)GlcNAc(b1-6)Gal(b1-4)GlcNAc
# Summary of the method: as §1
# [18] = biological target: Gal(b1-3)[Fuc(a1-4)]GlcNAc
# Summary of the method: as §1
# [19] = biological target: Gal(b1-3)[Fuc(a1-4)]GlcNAc(b1-2)Man(a1-3)[Gal(b1-3)[Fuc(a1-4)]GlcNAc(b1-2)Man(a1-6)]Man(b1-4)GlcNAc(b1-4)GlcNAc
# Summary of the method: as §1
# [20] = biological target: Gal(b1-3)[Fuc(a1-4)]GlcNAc(b1-2)Man(a1-3)[Gal(b1-3)[Fuc(a1-4)]GlcNAc(b1-2)Man(a1-6)]Man(b1-4)GlcNAc(b1-4)[Fuc(a1-6)]GlcNAc
# Summary of the method: as §1
# [21] = biological target: Gal(b1-3)[Fuc(a1-4)]GlcNAc(b1-3)Gal(b1-3)[Fuc(a1-4)]GlcNAc
# Summary of the method: as §1
# [22] = biological target: Gal(b1-3)[Fuc(a1-4)]GlcNAc(b1-3)Gal(b1-4)GlcNAc
# Summary of the method: as §1
# [23] = biological target: Gal(b1-3)[Fuc(a1-4)]GlcNAc(b1-3)Gal(b1-4)[Fuc(a1-3)]GlcNAc
# Summary of the method: as §1
# [24] = biological target: Gal(b1-3)[GlcNAc(b1-6)]GalNAc
# Summary of the method: as §1
# [25] = biological target: Gal(b1-3)[Neu5Ac(a2-6)]GalNAc
# Summary of the method: as §1
# [26] = biological target: Gal(b1-3)[Neu5Ac(a2-6)]GlcNAc(b1-6)Gal(b1-4)Glc
# Summary of the method: as §1
# [27] = biological target: Gal(b1-3)[Neu5Ac(b2-6)]GalNAc
# Summary of the method: as §1
# Gal(b1-4)Gal = biological target: Gal(b1-4)Gal
# Summary of the method: as §1
# [28] = biological target: Gal(b1-4)GalNAc(a1-3)[Fuc(a1-2)]Gal(b1-4)GlcNAc
# Summary of the method: as §1
# [29] = biological target: Gal(b1-4)GalNAc(b1-3)[Fuc(a1-2)]Gal(b1-4)GlcNAc
# Summary of the method: as §1
# Gal(b1-4)Glc = biological target: Gal(b1-4)Glc
# Summary of the method: as §1
# Gal(b1-4)Glc6S = biological target: Gal(b1-4)Glc6S
# Summary of the method: as §1
# Gal(b1-4)GlcNAc = biological target: Gal(b1-4)GlcNAc
# Summary of the method: as §1
# [30] = biological target: Gal(b1-4)GlcNAc(a1-6)Gal(b1-4)GlcNAc
# Summary of the method: as §1
# Gal(b1-4)GlcNAc(b1-2)Man = biological target: Gal(b1-4)GlcNAc(b1-2)Man
# Summary of the method: as §1
# [31] = biological target: Gal(b1-4)GlcNAc(b1-2)Man(a1-3)Man(b1-4)GlcNAc(b1-4)GlcNAc
# Summary of the method: as §1
binder,measurement,setting,value
B1,glycan array binding signal (z-score),[1],-0.367
same,glycan array binding signal (z-score),Gal(b1-3)GalNAc,-0.383
same,glycan array binding signal (z-score),[2],-0.379
same,glycan array binding signal (z-score),[3],-0.385
same,glycan array binding signal (z-score),[4],-0.372
same,glycan array binding signal (z-score),[5],-0.375
same,glycan array binding signal (z-score),[6],-0.381
same,glycan array binding signal (z-score),Gal(b1-3)GlcNAc,-0.39
same,glycan array binding signal (z-score),[7],-0.384
same,glycan array binding signal (z-score),[8],-0.382
same,glycan array binding signal (z-score),[9],0.632
same,glycan array binding signal (z-score),[10],-0.385
same,glycan array binding signal (z-score),[11],-0.383
same,glycan array binding signal (z-score),[12],-0.386
same,glycan array binding signal (z-score),[13],-0.383
same,glycan array binding signal (z-score),[14],-0.382
same,glycan array binding signal (z-score),[15],-0.124
same,glycan array binding signal (z-score),[16],-0.391
same,glycan array binding signal (z-score),[17],-0.387
same,glycan array binding signal (z-score),[18],2.16
same,glycan array binding signal (z-score),[19],-0.358
same,glycan array binding signal (z-score),[20],-0.059
same,glycan array binding signal (z-score),[21],1.72
same,glycan array binding signal (z-score),[22],0.317
same,glycan array binding signal (z-score),[23],2.7
same,glycan array binding signal (z-score),[24],-0.383
same,glycan array binding signal (z-score),[25],-0.38
same,glycan array binding signal (z-score),[26],-0.386
same,glycan array binding signal (z-score),[27],-0.386
same,glycan array binding signal (z-score),Gal(b1-4)Gal,-0.38
same,glycan array binding signal (z-score),[28],-0.11
same,glycan array binding signal (z-score),[29],-0.329
same,glycan array binding signal (z-score),Gal(b1-4)Glc,-0.383
same,glycan array binding signal (z-score),Gal(b1-4)Glc6S,-0.388
same,glycan array binding signal (z-score),Gal(b1-4)GlcNAc,-0.376
same,glycan array binding signal (z-score),[30],-0.386
same,glycan array binding signal (z-score),Gal(b1-4)GlcNAc(b1-2)Man,-0.368
same,glycan array binding signal (z-score),[31],-0.367
